Consider 172 sequences from publication PMC6212790.

This is one part of the list. At the low end of the ranking the order means little.

The target of the experiment is T1, GST-Rok-C97-191 (UniProt O34857).
T1 sequence: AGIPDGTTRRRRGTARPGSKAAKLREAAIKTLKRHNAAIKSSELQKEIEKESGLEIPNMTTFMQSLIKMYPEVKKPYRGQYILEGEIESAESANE
Description: protein binding microarray.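 Note: rank score from −0.5 (least bound) to 0.5 (best bound).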 The note with it: Rok is a gene silencer of Bacillus subtilis; high values mean tight binding; most listed sequences are background and not binding sites; double strand, one strand shown.
Sequence AAGTGGTA registered a binding signal of 0.385 E-score.

CACGGATG came in with a binding signal of -0.0672 E-score. To CCATCGTA belongs 0.0759 E-score; to ACAGTGCG, -0.137 E-score; to ATGCCCAG, -0.301 E-score.

In the case of AGAGAGCG, the binding signal is -0.249 E-score. The same measure for CGTGGGTA: -0.0297 E-score.

CTCAAGAA yielded a binding signal of 0.0364 E-score. AGCGTGCA displayed a binding signal of -0.122 E-score. The same measure for ATACCTAG: 0.253 E-score. In the case of CGCTGAAC, the binding signal is -0.22 E-score.

AACTTTGG came in with a binding signal of -0.0234 E-score. The same measure for ACTAGTCC: -0.0796 E-score. To CTAGACAG belongs -0.0919 E-score; to AATAGTCA, 0.186 E-score; to GAGTGAGA, -0.071 E-score. The same measure for CTCGCTAC: 0.102 E-score. As for AAGGCACT, the binding signal was -0.0606 E-score. With ATTCACGC, the binding signal was 0.045 E-score. To CTCTGCTC belongs -0.0467 E-score; to CCCACCAC, -0.342 E-score. To AGATGGTA belongs 0.269 E-score; to GATCTGAC, -0.0267 E-score; to CACCAGCC, -0.202 E-score. Regarding CTTCCAAG, the binding signal is -0.117 E-score. The sequence CCGAGACA gave a binding signal of -0.0987 E-score. To GCGGGACC belongs -0.341 E-score; to CGGGCCGA, -0.218 E-score. CAACGGAC: the binding signal was -0.085 E-score. Turning to CTAGACCC, the binding signal is -0.14 E-score.

AGCGAAAC displayed a binding signal of -0.0243 E-score.

TACCACGA yielded a binding signal of -0.0495 E-score. To ATATTTCA belongs 0.209 E-score. The same measure for CCTCTCGA: -0.0079 E-score; for CACTTCCC: -0.23 E-score. CCCATACA gave a binding signal of -0.0881 E-score. Turning to ACACTCCA, the binding signal was -0.114 E-score. To CGTGAAAA belongs -0.0271 E-score; to ACATTTTC, 0.25 E-score. To AGTCTTAC belongs -0.0282 E-score; to CAACGATC, -0.0668 E-score; to AGCAGACC, -0.211 E-score. The same measure for ACGTAACA: 0.138 E-score; for CCGGACGG: -0.16 E-score; for GGCACGAC: -0.111 E-score. On to CTATTTAA, for which the binding signal amounted to 0.14 E-score.

In turn, CATTTTTC yielded a binding signal of 0.0874 E-score. CTGATGCA yielded a binding signal of -0.00113 E-score. In the case of AGGTAGGC, the binding signal was -0.0746 E-score. To ACATCCGC belongs -0.0238 E-score; to CATGGGCG, -0.142 E-score. To AAGCGGGG belongs -0.141 E-score. The same measure for TCGCCAGA: -0.108 E-score; for GGAATTAC: 0.176 E-score; for CTACCATA: 0.324 E-score. In the case of GAGAAGCA, the binding signal came out at 0.0593 E-score. For CGAAGTCA, the binding signal amounted to 0.0513 E-score. The same measure for GTGGTTCA: -0.0356 E-score; for CGCCAGCC: -0.311 E-score. To CGTCGCCC belongs -0.269 E-score; to GACACTAA, 0.185 E-score; to CTTGCCAC, -0.0529 E-score.

Sequence AAAAGTCA registered a binding signal of -0.0792 E-score. The same measure for AGACCCCC: -0.377 E-score; for AGCAAAGC: -0.0396 E-score; for ACCCGTGG: -0.184 E-score.

In turn, CGGCATAA gave a binding signal of -0.0226 E-score. The same measure for CTCGTTCA: -0.155 E-score; for CAGTACTA: 0.264 E-score; for CGGCCAGA: -0.075 E-score. In the case of GAGATGGA, the binding signal was -0.0593 E-score. As for GGCCATAA, the binding signal is -0.115 E-score. AATGCAGA displayed a binding signal of 0.0249 E-score.

CTAAGTTC returned a binding signal of -0.00117 E-score.

The sequence CACTAATC gave a binding signal of 0.1 E-score.

Turning to GCAGTTAA, the binding signal is 0.177 E-score. Sequence AAGCGTGA had a binding signal of -0.184 E-score. AAGCACGA: the binding signal turned out to be 0.0891 E-score. To TAAACATA belongs 0.263 E-score.

ACCATGGA: the binding signal worked out at 0.0364 E-score. Consider CGTGATGC, for which the binding signal is -0.183 E-score.

Turning to AGTTCTAA, the binding signal stood at 0.142 E-score. AGCCTCAA: the binding signal is -0.0292 E-score.

In the case of ACCTTCGT, the binding signal was -0.187 E-score. To CTTGCACA belongs 0.0299 E-score; to CCGAAGTA, -0.00374 E-score; to CCCGTGGA, -0.274 E-score.

CTGGAGCC: the binding signal is -0.167 E-score. To ATCACACA belongs 0.0412 E-score. To ACAAACCT belongs -0.0156 E-score. The same measure for CTATAGTA: 0.371 E-score; for GCTGACAC: -0.0132 E-score. In turn, AGGAAGTG had a binding signal of -0.122 E-score. To CGTATGTA belongs 0.214 E-score; to AAGTGCCG, -0.15 E-score; to GACTAAGA, 0.158 E-score. As for CCAAGAAC, the binding signal is -0.109 E-score. The sequence TTGGTAAA had a binding signal of 0.207 E-score. Regarding AAGGCTAA, the binding signal was -0.135 E-score. The same measure for GATTAAAC: -0.0781 E-score; for ACATCCCC: -0.166 E-score; for CACTTTCC: 0.0258 E-score. To GATCCGCC belongs -0.221 E-score. For the sequence ACAGTGTC, the binding signal was 0.0893 E-score.

For the sequence AGACCCTC, the binding signal is -0.321 E-score. To AGAGATAC belongs 0.166 E-score; to CACCCATA, 0.11 E-score. To CTGATTTC belongs 0.0533 E-score; to CTGTTTAA, -0.0615 E-score. For the sequence GTAACCCA, the binding signal was -0.023 E-score. With GAATTACA, the binding signal was 0.275 E-score. The same measure for TACTCTCA: 0.0486 E-score. CGCACACA showed a binding signal of -0.142 E-score. To ATGCTCAC belongs -0.051 E-score; to ATGGGATC, -0.169 E-score. To CAATGCTC belongs -0.169 E-score; to ACCGTGGC, -0.127 E-score. Consider AGGACACT, for which the binding signal is -0.0734 E-score. With GGACTGAA, the binding signal was -0.103 E-score. To ACTTTCAC belongs 0.0142 E-score; to TGACGTAA, -0.0454 E-score; to GGTTGCAA, -0.107 E-score.

TCGTTGCA showed a binding signal of 0.0683 E-score. To CGCGTGCC belongs -0.342 E-score; to GCGCAACA, 9.73e-05 E-score; to ACACTAAC, 0.101 E-score. The same measure for CTCGGCCA: -0.0679 E-score; for GGGAACCA: -0.282 E-score; for AATTCTTC: 0.0496 E-score. To CCGACGCC belongs -0.268 E-score; to CCACGTTA, 0.185 E-score. Sequence GAGTCTAC showed a binding signal of -0.0709 E-score.

In turn, ACGCGGTC displayed a binding signal of -0.114 E-score. To GTGGGAGA belongs -0.209 E-score.

AATAGAGC displayed a binding signal of -0.02 E-score. In turn, CCAAAGTC came in with a binding signal of -0.116 E-score. Take AAGCTCAC: the binding signal came to 0.0253 E-score. The same measure for CACGCTGC: -0.232 E-score. To CTCGGGCA belongs -0.105 E-score; to GAATACGA, -0.016 E-score; to GCCAGTTA, 0.24 E-score. The same measure for TAACTGGA: 0.139 E-score; for AAGGCAAC: -0.0728 E-score; for AGAGATCA: -0.172 E-score. Regarding ACACCTTC, the binding signal was -0.0523 E-score. As for CTTAGAAC, the binding signal came out at 0.124 E-score. The same measure for GGAACCTA: 0.13 E-score; for GCCCTGCC: -0.301 E-score. To ACTGGAAT belongs 0.088 E-score; to CATGGTCA, -0.067 E-score; to ACTGCGCG, -0.0406 E-score. To AGTCCGAG belongs -0.355 E-score; to TCGCACGA, -0.0689 E-score.

Sequence CACAAACA showed a binding signal of 0.0612 E-score. CACCTCAG gave a binding signal of -0.24 E-score. To GATCAACA belongs -0.115 E-score. The sequence AATTATGG returned a binding signal of 0.249 E-score. The same measure for CGAGAACC: -0.131 E-score. To CGCCCAGA belongs -0.293 E-score; to CCAGGTAA, -0.0546 E-score; to CGAAGGAA, -0.177 E-score. The same measure for AAGTTGAG: -0.0126 E-score; for AGACACAA: 0.015 E-score. As to CATAGTTC, the binding signal was 0.168 E-score. Sequence GGCTTTAA had a binding signal of -0.0588 E-score. As for GCTGAGGA, the binding signal was -0.155 E-score. The same measure for AGTCGGCC: -0.129 E-score; for GGCCAGTA: -0.111 E-score. To AACTCGCA belongs 0.067 E-score; to ATCCTCAT, -0.00756 E-score. As for ATGTCTCG, the binding signal was 0.0615 E-score. The same measure for CACTGTAA: 0.104 E-score.
